From PubChem BioAssay (NCI)
Where “and” joins values, the source holds several entries; their conditions need not be identical. Equal entries are not always repeated.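 Each compound was tested at five concentrations against cells in 96-well plates for 48 hours. The concentration for 50% growth inhibition is given as GI50. At the TGI there is no net growth.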

These compounds were tested on NCI-H322M lung (assay: growth of human tumour cells (NCI), 48 h).

Question: With `O=C(c1ccccc1)c1c(C(F)(F)F)n([O-])c2cc(C(F)(F)F)ccc2[n+]1=O` as the compound, how does the GI50 read?
Answer: 1.94 µM

Question: And the TGI?
Answer: 3.83 µM

Question: Which TGI does the source give for `CN(C)CCNC(=O)c1cccc2nc3c(C(=O)NCCN(C)C)cccc3nc12` here?
Answer: 4.14 µM

Question: For `CCCCCCCC/C=C1\CCC(CN2CCOCC2)C1=O` (stereo not drawn), which TGI is on record?
Answer: 30.3 µM

Question: `Cc1ccc(S(=O)(=O)C2=c3nc4ccccc4cc3=C3C(=O)c4ccccc4C(=O)C32)cc1` (stereo not drawn) was tested. Which TGI did it give?
Answer: > 100 µM

Question: How did the TGI turn out when `COc1cc2c(cc1Oc1c(Oc3c(O)c(OC)cc4c3C(CC(C)C)N(C)CC4)c(OC)cc3c1C(CC(C)C)N(C)CC3)C(CC(C)C)N(C)CC2` (stereo not drawn) was run?
Answer: 11.1 µM

Question: Which TGI does the source give for `O=C(Nc1ccccc1Cl)c1ccc([N+](=O)[O-])cc1` here?
Answer: > 100 µM

Question: With `CC1SC2(CCCCC2)N(NC(=O)CSc2nc3ccc(Cl)cc3c(=O)n2-c2ccccc2)C1=O` (stereo not drawn) as the compound, how does the TGI read?
Answer: > 100 µM

Question: For `CCCCCCCCCCCCCC[n+]1ccc(C(N)=O)cc1`, which GI50 is on record?
Answer: 5.79 µM

Question: What about the TGI of the same compound?
Answer: 21.8 µM

Question: With `Cc1c(C)c(C)c(-n2c(=O)n(C)c(=O)n2-c2cc(C(C)(C)C)cc(C(C)(C)C)c2O)c(C)c1C` as the compound, how does the TGI read?
Answer: 27.5 µM

Question: How did the TGI turn out when `COc1cc(Cc2cnc(N)nc2N)cc(OC)c1OCCCNc1ccc([N+](=O)[O-])cc1` was run?
Answer: 49.5 µM

Question: How did the TGI turn out when `CC(C(=O)c1ccncc1)c1ccccn1` (stereo not drawn) was run?
Answer: > 100 µM

Question: How did the TGI turn out when `O=C(c1cccs1)N1CCCN(C(=O)c2cccs2)C1=S` was run?
Answer: > 100 µM

Question: How did the TGI turn out when `COC(=O)c1c(C)cccc1C1CN=NC12Cc1cc(C)cc(C)c1C2=O` (stereo not drawn) was run?
Answer: > 100 µM

Question: For `COc1ccc2c(c1)NC1(O)c3ccccc3C(=O)C21O` (stereo not drawn), which TGI is on record?
Answer: > 100 µM

Question: Which TGI does the source give for `COc1cc(NS(C)(=O)=O)ccc1NCc1c2ccccc2nc2ccccc12` here?
Answer: > 100 µM

Question: For `COC(=O)c1c2c(cc3c1CC1(Cc4cc5c(c(C(C)=O)c4C1)CCCC5)C3)CCCC2` (stereo not drawn), which TGI is on record?
Answer: > 100 µM

Question: Which GI50 does the source give for `CC(=O)O[C@H]1C(=O)[C@@]2(C)[C@H]([C@H](OC(=O)c3ccccc3)[C@]3(O)C[C@H](OC(=O)[C@H](OC(=O)OC[C@H]4COC(C)(C)O4)[C@@H](NC(=O)c4ccccc4)c4ccccc4)C(C)=C1C3(C)C)[C@]1(OC(C)=O)CO[C@@H]1C[C@@H]2O` here?
Answer: 0.053 µM

Question: And the TGI?
Answer: > 33.3 µM

Question: `C=CC(=O)N1C/C(=C\c2ccc([N+](=O)[O-])cc2)C(=O)/C(=C/c2ccc([N+](=O)[O-])cc2)C1` was tested. Which TGI did it give?
Answer: 2.19 µM

Question: For `CCCCCC[C@@H](C)NC(=O)c1ccc(Nc2nc3ccccc3c3occc23)cc1`, which GI50 is on record?
Answer: 21.9 µM

Question: What about the TGI of the same compound?
Answer: 76.1 µM

Question: For `COC(=O)C1=C(C(=O)OC)C(N(C)C)C(C(=O)OC)=C(C(=O)OC)S1`, which TGI is on record?
Answer: > 100 µM

Question: For `COC(=O)CNC(=O)CCC(C)[C@H]1CCC2C3C(C[C@H](OC(C)=O)[C@@]21C)[C@@]1(C)CCC2(C[C@H]1C[C@H]3OC(C)=O)OOC1(CC[C@]3(C)C4C[C@H](OC(C)=O)[C@@]5(C)C(CC[C@@H]5C(C)CCC(=O)NCC(=O)OC)C4[C@H](OC(C)=O)C[C@@H]3C1)OO2` (stereo partly drawn), which TGI is on record?
Answer: > 50 µM

Question: Which TGI does the source give for `Cc1ccc(S(=O)(=O)OC(COC(=O)c2ccccc2)C(OS(=O)(=O)c2ccc(C)cc2)C(OS(=O)(=O)c2ccc(C)cc2)C(COC(=O)c2ccccc2)OS(=O)(=O)c2ccc(C)cc2)cc1` (stereo not drawn) here?
Answer: > 100 µM

Question: Which TGI does the source give for `CO/N=C(\C([O-])=N\[n+]1cnn(CC(=O)OC(C)(C)C)c1)c1csc(NC(c2ccccc2)(c2ccccc2)c2ccccc2)n1` here?
Answer: > 10 µM

Question: How did the TGI turn out when `Cc1cc2n[n+]3[n-]cc(-c4ccccc4)n3c2cc1[N+](=O)[O-]` was run?
Answer: > 100 µM

Question: `O=C1CSC(c2ccc([N+](=O)[O-])cc2)N1c1ccc(-c2ccc(-n3c(-c4ccccc4)nc4ccccc4c3=O)cc2)cc1` (stereo not drawn) was tested. Which TGI did it give?
Answer: > 100 µM

Question: `C/C=C(\C)C(=O)O[C@@H]1CC(C)(C)CC2C3=CCC4[C@]56CC[C@](O)(OC5)C(C)(C)C6CC[C@@]4(C)C3(C)CC[C@]21C(=O)O` (stereo partly drawn) was tested. Which TGI did it give?
Answer: > 100 µM

Question: `COc1ccc(NC(C(N)=O)c2cc3cc(Br)ccc3nc2Cl)cc1` (stereo not drawn) was tested. Which TGI did it give?
Answer: > 100 µM

Question: For `Cc1c(Cl)cccc1NC(=O)/C=C/c1ccccc1`, which TGI is on record?
Answer: > 100 µM

Question: Which GI50 does the source give for `COC(=O)CCNc1c2ccccc2nc2cccc([N+](=O)[O-])c12` here?
Answer: 0.0958 µM and 0.118 µM

Question: And the TGI?
Answer: 0.788 µM and 0.979 µM

Question: For `c1ccc(SC23C4C5C6C4C2C6C53)nc1` (stereo not drawn), which TGI is on record?
Answer: > 100 µM

Question: Which TGI does the source give for `CCCOP(=O)(OCCC)OC(C(F)(F)F)C(F)(F)F` here?
Answer: > 100 µM

Question: With `COC(=O)c1ccccc1/C=C1\Cc2ccc3c(c2C1=O)CCCC3` as the compound, how does the TGI read?
Answer: > 100 µM

Question: For `COC1=C(C)C(=O)C2=C(C1=O)C1C3CC4=C(C(=O)C(OC)=C(C)C4=O)C(CNC(=O)C(C)O)N3C(C#N)C(C2)N1C` (stereo not drawn), which TGI is on record?
Answer: 0.63 µM

Question: For `C=C(C)[C@H]1C2=CC(C)=C(O2)[C@@H](O)[C@H](C(=C)C)CCC2=C[C@H]1OC2=O`, which TGI is on record?
Answer: > 100 µM

Question: `CCOC(=O)[C@@]1(C)CC(O)C(=O)N1C` (stereo partly drawn) was tested. Which TGI did it give?
Answer: > 100 µM

Question: `COc1cc(OC)c(OC)cc1/C=C/c1cnnc2ccccc12` was tested. Which TGI did it give?
Answer: > 10 µM

Question: `CCOC(=O)C1=C(C)N(NC(N)=O)C2(N)N(NC(N)=O)C(C)=C(C(=O)OCC)C12C(=O)OCC` (stereo not drawn) was tested. Which TGI did it give?
Answer: > 100 µM

Question: `COC(=O)C1=C(O)CCCC(C2CCCCC(=O)C2C(=O)OC)=C1` (stereo not drawn) was tested. Which TGI did it give?
Answer: > 100 µM

Question: For `CN(C)CCCC1(c2ccc(F)cc2)OCc2cc(-c3cc4ccccc4s3)ccc21` (stereo not drawn), which GI50 is on record?
Answer: 1.68 µM

Question: What about the TGI of the same compound?
Answer: 3.06 µM

Question: For `C[C@H]1CNC(=O)c2cnn3ccc(nc23)N[C@H](C)c2cc(F)ccc2O1`, which GI50 is on record?
Answer: 1.5 µM

Question: And the TGI?
Answer: 14.5 µM

Question: How did the GI50 turn out when `CCCCCCCC(=O)SCC/C=C/[C@@H]1CC(=O)NCc2nc(cs2)C2=N[C@@](C)(CS2)C(=O)N[C@@H](C(C)C)C(=O)N1` was run?
Answer: 0.0336 µM
